The values below come from a collection of fitness landscapes (doi:10.1038/s41467-024-54723-y).

The full ranking holds about 18,000 sequences; the median of “TetR repression strength (sort-seq, GFP reporter)” is about 0.23, and the highest 2% start at about 0.68. The list shows a part of the results.

The target of the experiment is TetR (class B, Tn10) (UniProt P04483). The experiment is described as follows: TetR repression strength (sort-seq, GFP reporter) (relative to tetO2 = 1); higher = stronger repression. The following applies: E. coli. The procedure, abridged: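 Three independent transformations of E. coli SIG10-MAX were made with a low-copy plasmid library randomizing eight operator positions between a constitutive promoter and sfGFP, with constitutive TetR. Following 5 h at 37 °C in LB plus 50 µg/mL chloramphenicol, 10^6 cells went through FACS into 13 fluorescence bins, and each bin was sequenced by Illumina. Repression strength was defined as the top bin index plus one minus the read-weighted mean bin, divided by the unaltered operator's value. Averages included only members reaching ≥30 reads in all replicates with a CV ≤0.5.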
Chain of UniProt P04483 (P04483 whole entry): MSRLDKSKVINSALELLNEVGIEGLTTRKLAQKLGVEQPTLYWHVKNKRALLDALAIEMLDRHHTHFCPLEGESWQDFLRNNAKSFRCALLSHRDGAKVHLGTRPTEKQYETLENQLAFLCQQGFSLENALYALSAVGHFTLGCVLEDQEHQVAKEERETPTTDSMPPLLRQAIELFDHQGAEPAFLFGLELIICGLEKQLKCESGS
Consider TCCCTTTCAGTGGGGGAGA, for which the TetR repression strength is 0.197. The value for TCCCACTGAGTTAGGGAGA was 0.271. In the case of TCCCGTGCAGTCACGGAGA, the TetR repression strength came out at 0.161. In turn, TCCCGGCTAGTGGGAGAGA displayed a TetR repression strength of 0.324. In turn, TCCCATCCAGTTAGAGAGA returned a TetR repression strength of 0.275. The value for TCCCACAAAGTTATGGAGA was 0.214; that for TCCCGGTAAGTTTCTGAGA was 0.231. TCCCCGCAAGTACACGAGA displayed a TetR repression strength of 0.292. Sequence TCCCTTTAAGTCCGTGAGA showed a TetR repression strength of 0.518. The value for TCCCTTCAAGTTGAAGAGA was 0.13. The sequence TCCCACTGAGTAAGCGAGA yielded a TetR repression strength of 0.127. TCCCTCTGAGTTTGCGAGA: the TetR repression strength was determined as 0.335.

TCCCCACGAGTTTCTGAGA had a TetR repression strength of 0.492. In turn, TCCCCGATAGTTCGTGAGA displayed a TetR repression strength of 0.23. Sequence TCCCGGCTAGTGTTTGAGA had a TetR repression strength of 0.24. For the sequence TCCCTTTTAGTGTGAGAGA, the TetR repression strength is 0.244. For TCCCGTTGAGTGACTGAGA, the TetR repression strength was determined as 0.105. Take TCCCCGGAAGTGGGTGAGA: the TetR repression strength was 0.244.

The sequence TCCCGTGAAGTATATGAGA gave a TetR repression strength of 0.356. TCCCCTGTAGTCTTCGAGA registered a TetR repression strength of 0.277. The value for TCCCGAATAGTTCAGGAGA was 0.284; that for TCCCAGAGAGTCGGGGAGA was 0.196; that for TCCCGTGCAGTTTGCGAGA was 0.323. Sequence TCCCTCAAAGTTCTCGAGA displayed a TetR repression strength of 0.207.

TCCCCTGGAGTTGCGGAGA: the TetR repression strength came to 0.258. Take TCCCAGGAAGTTGTTGAGA: the TetR repression strength turned out to be 0.281. TCCCATGCAGTGTAGGAGA gave a TetR repression strength of 0.173. The value for TCCCGTTTAGTACCCGAGA was 0.048.

The sequence TCCCCTGGAGTAACAGAGA gave a TetR repression strength of 0.587. For TCCCAGGGAGTGGAAGAGA, the TetR repression strength was found to be 0.235. Turning to TCCCGTTCAGTCGCGGAGA, the TetR repression strength stood at 0.188. Consider TCCCAATCAGTTATCGAGA, for which the TetR repression strength came to 0.468. The value for TCCCACTCAGTGAGGGAGA was 0.255; that for TCCCTTTTAGTTCGTGAGA was 0.36; that for TCCCAGGTAGTGCGGGAGA was 0.279. The value for TCCCAGCTAGTGGACGAGA was 0.295. On to TCCCGGCAAGTGGAGGAGA, for which the TetR repression strength turned out to be 0.066.

Consider TCCCATCCAGTTGGAGAGA, for which the TetR repression strength was 0.387. TCCCCATTAGTGTTTGAGA registered a TetR repression strength of 0.207.

For the sequence TCCCACTAAGTCGTGGAGA, the TetR repression strength was 0.15. For the sequence TCCCGCGTAGTTAATGAGA, the TetR repression strength came to 0.421. On to TCCCTGTGAGTGTGTGAGA, for which the TetR repression strength was determined as 0.265. Turning to TCCCTTCGAGTGATCGAGA, the TetR repression strength was determined as 0.274. In turn, TCCCTAGCAGTCGGTGAGA returned a TetR repression strength of 0.29. As for TCCCGGGTAGTTAAAGAGA, the TetR repression strength amounted to 0.583. The value for TCCCTAGCAGTATGAGAGA was 0.258; that for TCCCTTGCAGTAATTGAGA was 0.155; that for TCCCGGTCAGTGAGAGAGA was 0.591. Turning to TCCCGTCGAGTGCACGAGA, the TetR repression strength is 0.0838. TCCCTGTCAGTTGCCGAGA registered a TetR repression strength of 0.239. With TCCCTAGAAGTTACTGAGA, the TetR repression strength was determined as 0.18.

On to TCCCGGTAAGTGTCAGAGA, for which the TetR repression strength is 0.573. As for TCCCGCTTAGTGTCAGAGA, the TetR repression strength worked out at 0.634. In turn, TCCCAAATAGTGTGGGAGA displayed a TetR repression strength of 0.459. The value for TCCCGGCCAGTCAGGGAGA was 0.2; that for TCCCGCCAAGTGTTGGAGA was 0.253. Regarding TCCCTGCGAGTGGGAGAGA, the TetR repression strength was determined as 0.293. The value for TCCCCGTCAGTAGATGAGA was 0.216; that for TCCCATGGAGTACTTGAGA was 0.233; that for TCCCTAATAGTAGCGGAGA was 0.26. Turning to TCCCGCCGAGTGTGTGAGA, the TetR repression strength was found to be 0.0483. As to TCCCCAACAGTCAGGGAGA, the TetR repression strength is 0.314. As for TCCCTTGCAGTGAAAGAGA, the TetR repression strength was determined as 0.651.

TCCCTTTAAGTAATCGAGA had a TetR repression strength of 0.252. On to TCCCGTGCAGTATAAGAGA, for which the TetR repression strength is 0.164. The value for TCCCGTGAAGTAGCCGAGA was 0.126; that for TCCCACGGAGTCGTGGAGA was 0.182; that for TCCCCATAAGTAAAAGAGA was 0.317.

Sequence TCCCTAACAGTAACTGAGA had a TetR repression strength of 0.457.

Consider TCCCAGTTAGTGGCAGAGA, for which the TetR repression strength was 0.348. In turn, TCCCGGGCAGTAACTGAGA returned a TetR repression strength of 0.239. The sequence TCCCGGTCAGTGGCAGAGA had a TetR repression strength of 0.395. TCCCTGTTAGTTAGGGAGA returned a TetR repression strength of 0.571. The value for TCCCTGCGAGTCGCCGAGA was 0.317. The value for TCCCCTATAGTGACGGAGA was 0.159; that for TCCCGAGAAGTGCCTGAGA was 0.178.

Consider TCCCTAGGAGTATTGGAGA, for which the TetR repression strength was 0.205. TCCCCGAAAGTAACGGAGA gave a TetR repression strength of 0.301. With TCCCTGCTAGTGGTTGAGA, the TetR repression strength was 0.00782. For TCCCGGAGAGTGAAGGAGA, the TetR repression strength worked out at 0.242. With TCCCCTCTAGTGAGGGAGA, the TetR repression strength stood at 0.179. The sequence TCCCTGAGAGTCAGGGAGA yielded a TetR repression strength of 0.256. TCCCGCGGAGTCAAAGAGA showed a TetR repression strength of 0.248. TCCCGGTCAGTGAACGAGA came in with a TetR repression strength of 0.572. For TCCCGTTCAGTCATCGAGA, the TetR repression strength amounted to 0.413. On to TCCCCGCTAGTGCGCGAGA, for which the TetR repression strength came to 0.39. Turning to TCCCCTGCAGTATTAGAGA, the TetR repression strength came to 0.211.

Sequence TCCCTGGTAGTTCTTGAGA gave a TetR repression strength of 0.181. TCCCGTCTAGTGTAGGAGA returned a TetR repression strength of 0.463.

Sequence TCCCTGCGAGTTGCGGAGA yielded a TetR repression strength of 0.266. TCCCGGAAAGTGGATGAGA yielded a TetR repression strength of 0.165. The sequence TCCCTTAAAGTGAAGGAGA came in with a TetR repression strength of 0.097. Regarding TCCCGCAAAGTGAATGAGA, the TetR repression strength stood at 0.207. The value for TCCCCCTGAGTTGGTGAGA was 0.38; that for TCCCGTCGAGTTTGGGAGA was 0.295; that for TCCCGCTAAGTCTACGAGA was 0.0688. For TCCCTTACAGTGCACGAGA, the TetR repression strength is 0.358. Take TCCCTTGCAGTGACTGAGA: the TetR repression strength amounted to 0.341. As for TCCCATATAGTTGAAGAGA, the TetR repression strength was 0.39. TCCCAATGAGTCGTCGAGA showed a TetR repression strength of 0.193. For the sequence TCCCGCGAAGTTCCCGAGA, the TetR repression strength stood at 0.195. The value for TCCCAGCCAGTGAAGGAGA was 0.21.
